{"source": "PubChem BioAssay AID588855", "about": "(National Center for Advancing Translational Sciences (NCATS), 2011)", "note": "Hit rate of the full screen: of about 410,000 compounds, about 5,000 (1.2%) were called active. The shares of active, inactive and inconclusive entries below differ from those in the screen. Calls come from the whole dose curve; as a rule, active = well fitted inhibition curve with a large enough effect; inconclusive = small, poorly fitted or top-dose-only effect; inactive = no such curve, though single readings can be large or run the other way. Potencies of inconclusive entries are doubtful fits and often do not repeat. Potency is the fitted concentration of half-maximal effect; tags give direction and shape of the fitted curve."}
{"assay": "qHTS for Inhibitors of TGF-b; note: nearly all actives have a fitted effect of over 65% in size", "details": "HepG2 CAGA-GFP TGF-b/SMAD3 reporter, GFP fluorescence, 18 h, TGF-beta stimulated, 500 pg/mL final; series mostly up to 46.1 µM", "procedure,_shortened": "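Inhibition was scored as loss of TGF-beta-induced (500 pg/mL final, 18 hours, 37 degrees C) GFP in HEPG2 cells carrying a CAGA-GFP reporter, in DMEM with 1% FBS. Well GFP was summed per cell; Activity was normalised to unstimulated and stimulated DMSO wells, then concentration-response fitting.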"}
{"smiles": "O=C(Nc1nccs1)[C@@H]1CC=C[C@@H]2CCN(C3CC3)C(=O)[C@@H]21", "Potency": "inactive"}
{"smiles": "COc1cc(CNC(C)C23CC4CC(CC(C4)C2)C3)ccc1OCC(=O)NC(C)(C)C", "note": "(centres undefined)", "Potency": "inconclusive: 35.5 µM [inhibitor, single point]"}
{"smiles": "N=C1/C(=C\\c2ccc(-c3ccc(C(=O)O)cc3)o2)C(=O)N=C2SC=C(c3ccccc3)N12", "Potency": "inactive"}
{"smiles": "CC(C)C[C@H]1CNC(=S)N1C[C@H]1CCCN1C[C@H](Cc1ccc(O)cc1)N1C[C@H](Cc2ccccc2)N(CCc2ccccc2)C1=S", "Potency": "inconclusive: 10 µM [inhibitor, partial curve]"}
{"smiles": "Fc1nc(F)c(F)c(NCCCNc2c(F)c(F)nc(F)c2F)c1F", "Potency": "inconclusive: 11.2 µM [inhibitor, partial curve, poor fit]"}
{"smiles": "O=C(Nc1nc2c(F)cc(F)cc2s1)c1ccc(S(=O)(=O)N2CCc3ccccc32)cc1", "Potency": "inconclusive: 25.1 µM [inhibitor, single point]"}
{"smiles": "O=C(NC1=C(NC2CCS(=O)(=O)C2)C(=O)c2ccccc2C1=O)c1ccccc1", "note": "(centres undefined)", "Potency": "inconclusive: 11.2 µM [inhibitor, partial curve, poor fit]"}
{"smiles": "CCCCN1C(=O)C(CC(=O)NC2CC2)CC(C(=O)N2CCOCC2)=C1C", "note": "(centres undefined)", "Potency": "inactive"}
{"smiles": "O=C1CC(c2ccc3c(c2)OCO3)CN1", "note": "(centres undefined)", "Potency": "inconclusive: 6.31 µM [inhibitor, single point]"}
{"smiles": "COc1ccc(CC(=O)NC2CC(C)(C)NC(C)(C)C2)cc1OC", "Potency": "inactive"}
{"smiles": "Cc1cc(=O)[nH]c(NN=Cc2cc(Br)ccc2O)n1", "Potency": "inconclusive: 2 µM [inhibitor, partial curve]"}
{"smiles": "Cc1ccc(S(=O)(=O)NC(CC(C)C)C(=O)N2CCCCCCC2)cc1", "note": "(centres undefined)", "Potency": "inconclusive: 25.1 µM [inhibitor, single point]"}
{"smiles": "CN(CC(=O)NCC(=O)Nc1ccc(F)cc1)CC(=O)Nc1ccc(Cl)c(C(F)(F)F)c1", "Potency": "inconclusive: 35.5 µM [inhibitor, partial curve, poor fit]"}
{"smiles": "CC(NC(=O)/C(C#N)=C1\\N=C(NC(=O)c2cccs2)c2ccccc21)c1ccccc1", "note": "(centres undefined)", "Potency": "inconclusive: 3.16 µM [inhibitor, single point]"}
{"smiles": "CC(C)NC(=S)NN=C1c2ccccc2-c2ccccc21", "Potency": "inconclusive: 11.2 µM [inhibitor, single point]"}
{"smiles": "CCC(c1nnnn1-c1ccc2c(c1)OCCO2)N1CCN(C/C=C/c2ccccc2)CC1", "note": "(centres undefined)", "Potency": "inconclusive: 35.5 µM [inhibitor, single point]"}
{"smiles": "O=C(NCCCN1CCC(Cc2ccccc2)CC1)C1CC(=O)N(C2CCCCCC2)C1", "note": "(centres undefined)", "Potency": "inconclusive: 15.8 µM [inhibitor, single point]"}
{"smiles": "CCCCCNS(=O)(=O)c1cc2c3c(c1)CCC(=O)N3CCC2", "Potency": "inactive"}
{"smiles": "C[C@H]1CN([C@@H](C)CO)S(=O)(=O)c2ccc(/C=C/c3ccccc3)cc2O[C@H]1CN(C)C(=O)NC1CCCCC1", "Potency": "inconclusive: 35.5 µM [inhibitor, single point]"}
{"smiles": "CCCC(=O)Nc1cccc(OCc2cc(=O)n3cccc(C)c3n2)c1", "Potency": "inactive"}
{"smiles": "Cc1cc(C)c(C)c(S(=O)(=O)NCc2ccncc2)c1C", "Potency": "inactive"}
{"smiles": "Cc1ccccc1-c1noc(CSc2nc3ccccc3[nH]2)n1", "Potency": "inconclusive: 7.94 µM [inhibitor, partial curve, poor fit]"}
{"smiles": "COc1cc(/C=C2/SC(=NCc3ccccc3)N(Cc3ccccc3)C2=O)ccc1O", "Potency": "inconclusive: 35.5 µM [inhibitor, single point]"}
{"smiles": "COCc1cc(=O)[nH]c(/N=C(\\N)Nc2ccc(C)cc2C)n1", "Potency": "inactive"}
{"smiles": "C[C@H](NC(=O)c1cccc([N+](=O)[O-])c1)C(=O)OCC(=O)c1ccccc1Br", "Potency": "inactive"}
{"smiles": "CCOC(=O)C1CCCN(C(=O)c2ccc3c(c2)sc2nc(-c4cccc(OC)c4)cn23)C1", "note": "(centres undefined)", "Potency": "inconclusive: 1.26 µM [inhibitor, partial curve, poor fit]"}
{"smiles": "CC1CN(CC(=O)Nc2ccc(S(N)(=O)=O)cc2)CC(C)O1", "note": "(centres undefined)", "Potency": "inactive"}
{"smiles": "COc1ccc2c(c1)cc(C(=O)N[C@@H](CCSC)C(=O)N1CCC[C@H]1C(=O)O)n2C", "Potency": "inactive"}
{"smiles": "O=[N+]([O-])c1cccc(/C=C/c2ccccn2)c1", "Potency": "inactive"}
{"smiles": "CCOC(=O)c1sc2ccccc2c1S(=O)(=O)NCc1ccccc1OC", "Potency": "inconclusive: 22.4 µM [inhibitor, single point]"}
{"smiles": "O=C(Nc1cc(Br)c(O)c(Br)c1)c1cccc(NC(=O)c2ccco2)c1", "Potency": "inactive"}
{"smiles": "C#CCN(C[C@@H]1[C@@H](OC(=O)NCCCCCC)[C@@H](OC(=O)NCCCCCC)Cn2c(=O)ccc(=O)n21)S(=O)(=O)c1ccc(C)cc1", "Potency": "active: 6.31 µM"}
{"smiles": "O=C(NC(c1ccc(F)cc1)c1ccc2ccccc2n1)C1CCN(CCOc2ccc(F)cc2)CC1", "note": "(centres undefined)", "Potency": "active: 11.2 µM"}
{"smiles": "C=CCn1cc(C(=O)NCC2CCCO2)c(=O)c2cc(S(=O)(=O)N3CCCCCC3)ccc21", "note": "(centres undefined)", "Potency": "inconclusive: 12.6 µM [inhibitor, partial curve, poor fit]"}
{"smiles": "O=S(=O)(c1ccc(Cl)cc1)c1nc(-c2cccs2)oc1N1CCCCC1", "Potency": "inconclusive: 35.5 µM [inhibitor, partial curve, poor fit]"}
{"smiles": "C[C@H]1CN(CCc2ccccc2)C(=O)[C@@H]1CC(=O)NCc1ccccc1", "Potency": "inactive"}
{"smiles": "NC(=O)N/N=C/c1c(Sc2nnnn2-c2ccccc2)nc2ccccn2c1=O", "Potency": "inconclusive: 35.5 µM [inhibitor, single point]"}
{"smiles": "Cc1ccc(-n2nc3c4c(cccc4c2=O)-c2ccccc2-3)cc1", "Potency": "inactive"}
{"smiles": "CCOC(=O)c1c(NC(=O)CN2C(=O)NC3(CCCCC3)C2=O)sc(C)c1-c1ccc(C)cc1", "Potency": "inconclusive: 35.5 µM [inhibitor, single point]"}
{"smiles": "COc1cc2c(c(OC)c1OC)-c1ccc(NC(=O)c3ccc(F)cc3)c(=O)cc1[C@@H](NC(C)=O)CC2", "Potency": "inconclusive: 14.1 µM [inhibitor, single point]"}
{"smiles": "COc1ccc(S(=O)(=O)Nc2ccc3c(c2)C(=O)N([C@H](C)CO)C[C@@H](C)[C@@H](CN(C)S(=O)(=O)c2ccc(Cl)cc2)O3)cc1", "Potency": "inconclusive: 22.4 µM [inhibitor, single point]"}
{"smiles": "CCC1CN(C(=O)N2CCC(C(=O)NCCc3ccc(OC)cc3OC)CC2)c2cc(C)ccc2O1", "note": "(centres undefined)", "Potency": "inconclusive: 35.5 µM [inhibitor, single point]"}
{"smiles": "COc1ccc(NC(=O)c2ccc(OCc3c(C)noc3C)c(OC)c2)cn1", "Potency": "inactive"}
{"smiles": "O=C(CCn1nc(-c2ccc(Cl)cc2)ccc1=O)N1CCN(c2ccc(F)cc2)CC1", "Potency": "inconclusive: 15.8 µM [inhibitor, partial curve, poor fit]"}
{"smiles": "CCOC(=O)COc1cc(N)c(Cl)cc1Cl", "Potency": "inconclusive: 3.16 µM [inhibitor, partial curve, poor fit]"}
{"smiles": "O=C(CN1CCN(c2ccc(O)cc2)CC1)Nc1cc(S(=O)(=O)N2CCOCC2)ccc1Cl", "Potency": "inconclusive: 5.62 µM [inhibitor, single point]"}
{"smiles": "CC(=O)Nc1cc(C(=O)O)ccc1S(=O)(=O)c1ccc(Cl)cc1", "Potency": "inconclusive: 5.62 µM [inhibitor, single point]"}
{"smiles": "CC(C)(C)c1ccc(C(=O)CSc2ncn[nH]2)cc1", "Potency": "inconclusive: 14.1 µM [inhibitor, single point]"}
{"smiles": "Cc1nn2c(Nc3ccc(F)cc3)c3c(nc2c1-c1ccccc1)CCC3", "Potency": "inconclusive: 35.5 µM [inhibitor, single point]"}
{"smiles": "O=C(Nc1ncccc1O)c1ccc(Oc2ccccc2)cc1", "Potency": "inactive"}
{"smiles": "CCOc1ccc(-c2nnc3ccc(SCC(=O)Nc4nc5ccc(C)cc5s4)nn23)cc1", "Potency": "inconclusive: 35.5 µM [inhibitor, single point]"}
{"smiles": "CC(=O)CC1(OC(C)=O)C(=O)N(C)c2ccccc21", "note": "(centres undefined)", "Potency": "inconclusive: 20 µM [inhibitor, single point]"}
{"smiles": "CC(c1nc2scc(-c3ccccc3)c2c(=O)[nH]1)N1CCN(CC(=O)NC2CC2)CC1", "note": "(centres undefined)", "Potency": "inconclusive: 10 µM [inhibitor, partial curve, poor fit]"}
{"smiles": "C=CC[C@@H](CC(=O)N(CCO)Cc1ccccc1)C(=O)N[C@H](COC(=O)[C@@H](CC=C)Cc1ccc(F)cc1)C(C)(C)C", "Potency": "inconclusive: 12.6 µM [inhibitor, single point]"}
{"smiles": "Cc1ccccc1CSCC(=O)Nc1ccccc1-c1ccccc1", "Potency": "inconclusive: 35.5 µM [inhibitor, single point]"}
{"smiles": "CC(=O)C1=CCC(c2ccc(Br)cc2)N(S(=O)(=O)c2ccc(C)cc2)C1", "note": "(centres undefined)", "Potency": "inconclusive: 35.5 µM [inhibitor, single point]"}
{"smiles": "C[C@@H]1CN([C@@H](C)CO)C(=O)CCCn2nncc2CO[C@@H]1CN(C)S(=O)(=O)c1cccs1", "Potency": "inactive"}
{"smiles": "CC1Cc2ccccc2N1C(=O)CSc1nnc2c(n1)[nH]c1ccc(F)cc12", "note": "(centres undefined)", "Potency": "inactive"}
{"smiles": "CCc1cc(C(=O)Nc2cc(S(=O)(=O)N(CC)CC)ccc2N2CCN(C)CC2)sc1C", "Potency": "inconclusive: 5.62 µM [inhibitor, single point]"}
{"smiles": "COc1ccc(-c2csc(N(CCCN(C)C)C(=O)c3ccc(F)cc3)n2)cc1", "Potency": "inactive"}
{"smiles": "CCn1c(C(=O)NCCc2ccc(S(N)(=O)=O)cc2)cc2sc(Cl)cc21", "Potency": "inconclusive: 15.8 µM [inhibitor, single point]"}
{"smiles": "Cc1ccc(-c2nc(CS(=O)CC(=O)NC3CCC(C)CC3)c(C)o2)cc1", "note": "(centres undefined)", "Potency": "inconclusive: 35.5 µM [inhibitor, single point]"}
{"smiles": "O=C(CN1CCN(S(=O)(=O)c2ccc(Cl)cc2)CC1)Nc1ccc2c(c1)CCC2", "Potency": "inconclusive: 12.6 µM [inhibitor, single point]"}
{"smiles": "CC1CCN(C(=O)c2[nH]cnc2C(=O)NCc2ccc(CNC(=O)OC(C)(C)C)cc2)CC1", "Potency": "inconclusive: 7.08 µM [inhibitor, full curve]"}
